According to the supplement of paper PMC3334620:
In all, about 33,000 sequences were measured (“E-score (-0.5 to 0.5)”: median about -0.017, highest 2% from about 0.3 on). The list shows a part of the results.

target: T1, Sut1 (UniProt P53032); assay: PBM E-score (8-mer binding enrichment) (E-score (-0.5 to 0.5)); higher = stronger / more preferred TF binding; most listed sequences are background and not binding sites; details: protein concentration: 200 nM; construct: GST-full length
T1 sequence: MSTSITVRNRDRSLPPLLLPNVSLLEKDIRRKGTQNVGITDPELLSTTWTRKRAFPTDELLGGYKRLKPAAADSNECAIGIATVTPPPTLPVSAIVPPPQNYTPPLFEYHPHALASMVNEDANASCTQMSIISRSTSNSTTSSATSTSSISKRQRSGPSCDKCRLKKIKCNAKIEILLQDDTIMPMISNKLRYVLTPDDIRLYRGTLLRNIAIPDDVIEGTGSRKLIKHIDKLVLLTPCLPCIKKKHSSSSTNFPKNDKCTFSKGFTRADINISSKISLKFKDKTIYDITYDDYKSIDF
Protocol: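 Universal 'all 10-mer' protein binding microarrays (Agilent AMADID 015681) probed with GST-tagged S. cerevisiae TFs (full-length or DBD) made by in vitro transcription/translation (PURExpress), about 100-200 nM. Bound TF was detected with fluorescent anti-GST. Each ungapped 8-mer (which stands for itself and its reverse complement) is scored by the PBM enrichment score (E-score), a modified Wilcoxon-Mann-Whitney statistic from -0.5 to +0.5, computed with the Universal PBM Analysis Suite. Scale: above 0.35 generally sequence-specific binding.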

Sequence	PBM E-score
GCATGCAC	-0.0395
CCGAATCA	0.0456
GCCATTAA	0.0379
ACAGTCCC	-0.2
TAGGGGAA	-0.0298
AGAAGGAT	-0.049
ACCCCATA	-0.115
CCTTGAAG	-0.0873
GACTCCCA	-0.256
GCGTTATA	-0.0273
CATGGGTC	-0.185
AGCTCTAG	-0.0334
GAATCAAC	0.162
GACACGAA	-0.0977
GGGTCGTA	-0.113
CACATCAA	0.0836
TACGTGCA	-0.171
CGTATATC	0.0188
ACCGCAAC	0.165
ATCCCCCC	-0.461
CTCAGGCC	-0.305
CGTGCCTA	-0.182

Sequence	PBM E-score
ACTCCGCT	0.452
AGTACTCG	0.0601
CTTTTCCA	0.0423
CGCCAGGC	-0.0821
AGTTCACA	0.148
AGGTTAGA	-0.127
TCAATCAA	0.177
ATGGAGTG	-0.0878
ACTATCAT	0.18
AAACGGCT	-0.0414
AAGTGAAG	0.0277
AGCAGGCA	-0.137
TACCACAA	0.112
TCCTAACA	0.016
AGTCGATC	-0.115
AAAACACC	0.0604
ACGTAGCG	-0.233
CTTCAGCC	-0.227
ACGACAAA	0.172
AAGAGTCT	-0.129
CAAGGTCG	-0.176
CGGGCCTC	-0.145

Sequence	PBM E-score
CACTGAAG	0.0667
CGAGTTAA	0.146
AATTGGTA	0.115
GCTGTCTA	-0.0267
CGATTCAG	0.0122
CCATTAGC	0.00246
TCCCGACA	0.119
GTCCTCTA	-0.187
AAAGAATA	0.241
AATAAGAA	0.197
AGACTTCA	-0.0862
CAACGGAC	0.291
ATGGGCCC	-0.179
AGGGCGTC	-0.0183
CTTCGTGC	-0.0943
CTCCCCTA	-0.145
ATTTTACA	0.125
CGCCGCAG	-0.147
CGCTTGCA	0.139
ACGCCAGC	-0.182
GGCGACTA	-0.185
CTCAATCC	0.00324

Sequence	PBM E-score
TAGCCTCA	-0.134
CCGCTGCC	-0.153
CAAATACC	0.0342
ACGACGCC	-0.173
ATGCGAGA	0.106
CATCAAAG	-0.169
ACTACGTG	-0.352
AAACTATA	0.177
AAACCTTA	0.203
CACCGTGG	-0.194
CAGTCCGC	0.196
GGCTGCGA	-0.067
AGCTAAAG	0.097
ACTGGGAT	0.0387
ACATATAC	0.088
CGGCAGGC	-0.137
AGGCAAGG	-0.185
ATGGACGG	0.164
CGTAATTA	0.206
GGAGTCGA	0.0511
